US11365205B2 (Aurigene Discovery Technologies Limited, priority 2018, dated 2022)

These molecules were tested against PRMT5/MEP50 Complex (Homo sapiens (Human), UniProt O14744) (assay: PRMT5 inhibition based on TR-FRET assay). Conditions: 32 nM PRMT5:MEP50, 50 nM Histone-H4 peptide, 1 μM SAM.
Format: biochemical
Description: PRMT5 Inhibition Based on TR-FRET Assay:
Protein arginine methyltransferase 5 (PRMT5) is a type II arginine methyltransferase that catalyze mono- and symmetric demethylation on arginine residues of histone or non-histone proteins in presence of S-adenosylmethionine (AdoMet or SAM) a cofactor responsible for donating the methyl group. PRMT5 is reported to be overexpressed in several human cancers. To identify compounds that inhibit the PRMT5 and decrease its activity, a TR-FRET based assay has been established. Time-resolved fluorescence resonance energy transfer (TR-FRET) HTS assays are homogeneous proximity assays where the interaction of two dye-labeled binding partners is detected by the energy transfer between a donor and an acceptor dye and the subsequent light emission by the acceptor dye. PRMT5 catalyzes Histone H4 peptide which is biotin tagged to the Lysine amino acid at carboxyl end, in presence of S-adenosyl-1-methionine (SAM) to methylate the peptide. The antibody specific to mono methylated H4 peptide (H4R3) with Ig conjugate binds to the methylated peptide, indirectly binding to the Europium lanthanide. SureLight Allophycocyanin-Streptavidin binds to the biotin tag of the peptide, therefore accepting the energy transferred from the Europium lanthanide. This energy transfer between Europium to SureLight Allophycocyanin is a direct measure of the activity/inhibition of the PRMT5 enzyme.
Assay buffer: 20 mM BICINE (pH 7.6), 25 mM NaCl, 2 mM DTT, 0.01% Tween-20 and 0.01% BSA.
The compound dilutions were prepared as 7.5% DMSO stock solutions in assay buffer. To 2 μL (7.5×) of test compound, 5 μL of PRMT5 enzyme prepared in assay buffer (Final concentration of 32 nM in 15 μL reaction volume) was added and allowed for 30 minutes pre-incubation time in a white polystyrene 384-well plate at room temperature. […] The plates were then read on Victor-3 with Excitation at 340 nm and Emissions collected at 615 and 665 nm in TR-FRET protocol. […]

Sequence of UniProt O14744 (O14744 whole entry): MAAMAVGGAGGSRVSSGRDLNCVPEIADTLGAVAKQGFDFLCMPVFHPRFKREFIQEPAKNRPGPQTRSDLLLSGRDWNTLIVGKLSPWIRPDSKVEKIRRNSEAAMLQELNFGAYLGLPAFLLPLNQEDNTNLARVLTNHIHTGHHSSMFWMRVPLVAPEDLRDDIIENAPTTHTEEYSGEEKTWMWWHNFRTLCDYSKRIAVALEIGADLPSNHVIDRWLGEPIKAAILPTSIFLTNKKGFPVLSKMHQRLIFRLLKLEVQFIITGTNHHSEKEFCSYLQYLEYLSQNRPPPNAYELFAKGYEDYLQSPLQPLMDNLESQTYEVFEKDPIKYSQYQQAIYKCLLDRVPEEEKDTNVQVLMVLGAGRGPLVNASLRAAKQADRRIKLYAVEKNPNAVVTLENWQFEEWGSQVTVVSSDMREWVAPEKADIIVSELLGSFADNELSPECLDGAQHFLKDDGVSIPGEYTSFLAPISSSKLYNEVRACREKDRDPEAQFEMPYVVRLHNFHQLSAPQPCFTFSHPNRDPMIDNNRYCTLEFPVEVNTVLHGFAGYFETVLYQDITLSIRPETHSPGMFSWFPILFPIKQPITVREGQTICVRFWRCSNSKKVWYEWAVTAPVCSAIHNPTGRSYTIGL
Sequence of UniProt O14744 (Q9BQA1 whole entry partner): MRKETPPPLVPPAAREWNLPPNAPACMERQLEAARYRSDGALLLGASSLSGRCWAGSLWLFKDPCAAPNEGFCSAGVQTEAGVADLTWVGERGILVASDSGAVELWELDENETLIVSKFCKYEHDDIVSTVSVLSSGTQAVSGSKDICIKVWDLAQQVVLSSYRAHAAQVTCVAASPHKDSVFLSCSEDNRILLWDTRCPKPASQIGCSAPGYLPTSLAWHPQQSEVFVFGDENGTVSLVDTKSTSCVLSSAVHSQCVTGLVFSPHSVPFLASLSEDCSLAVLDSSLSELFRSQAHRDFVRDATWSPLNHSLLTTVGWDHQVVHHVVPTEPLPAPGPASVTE

Row | IC50 [nM] | Structure (SMILES)
1 | 120 | Cc1ccc(CN2CC3(CC3)N(CC(O)CN3CCc4ccccc4C3)C2=O)cn1 (stereo not drawn) [Example 6, 4-(3-(3,4-dihydroisoquinolin-2(1H)-yl)-2-hydroxypropyl)-6-((6-methylpyridin-3-yl)methyl)-4,6-diazaspiro[2.4]heptan-5-one]
2 | 230 | Cc1ccc(CN2C(=O)N(CC(O)CN3CCc4ccccc4C3)CC2(C)C)cc1 (stereo not drawn) [Example 10, 1-(3-(3,4-dihydroisoquinolin-2(1H)-yl)-2-hydroxypropyl)-4,4-dimethyl-3-(4-methylbenzyl)imidazolidin-2-one]
3 | 240 | CC1(C)CN(Cc2ccc(C#N)nc2)C(=O)N1CC(O)CN1CCc2ccccc2C1 (stereo not drawn) [Example 12, 5-((3-(3-(3,4-dihydroisoquinolin-2(1H)-yl)-2-hydroxypropyl)-4,4-dimethyl-2-oxoimidazolidin-1-yl)methyl)picolinonitrile]
